Here are results for one molecule from US20250051463A1, “CD123 ANTIBODY-DRUG CONJUGATES AND METHODS OF USING THE SAME” (ASTRAZENECA AB, priority 2023, published 2025).

Experiment [1] deals with GM-CSF mediated proliferation of TF-1. Put plainly: TF-1 cell proliferation (CellTiter-Glo). Particulars: 10 μg/ml antibody, GM-CSF 2 ng/ml, 3 days. Type of experiment: cell-based. As to the method:
The erythroleukemia cell line TF-1 that can proliferate only in the presence of one of the following growth factors, either IL-3 or GM-CSF was used. TF-1 cells were washed with RPMI and cultured overnight in the complete RPMI media (RPMI-1640, 10% fetal bovine serum) without any growth factor. To block Fc receptors on the cell surface, cells were incubated with human Fc block at RT for 5-10 mins. Cells were spun at 1300 rpm for 5 mins and were plated at 8,000 cells per well in complete media in either the presence or absence of 10 μg/ml of anti CD123 antibodies (HT12 and J13) or control antibodies (NIP228, 9F5). A growth factor, either IL-3 (1 ng/ml) or GM-CSF (2 ng/ml), was added to the cells to initiate proliferation. Cells were incubated at 37° C. in a humidified 5% CO2 incubator for 3 days. Cell viability was measured by CellTiter-Glo® (CTG) Luminescent cell Viability Assay. CTG reagent was added into the wells at equal volume and the plates were shaken at room temperature for 10 minutes. Then the absorbance was measured by Envision luminescence reader. The relative cell number in each well was calculated by dividing the value of each sample treated with an antibody by the average values of wells with the untreated cells (control). […] Isotype antibody had no effect on cell proliferation.

The test system of experiment [2] is IL-3 dependent proliferation of TF-1. Put plainly: TF-1 cell proliferation (CellTiter-Glo). The experiment is classed as cell-based. To be noted: 10 μg/ml antibody, IL-3 1 ng/ml, 3 days. Here is the method: The erythroleukemia cell line TF-1 that can proliferate only in the presence of one of the following growth factors, either IL-3 or GM-CSF was used. TF-1 cells were washed with RPMI and cultured overnight in the complete RPMI media (RPMI-1640, 10% fetal bovine serum) without any growth factor. To block Fc receptors on the cell surface, cells were incubated with human Fc block at RT for 5-10 mins. Cells were spun at 1300 rpm for 5 mins and were plated at 8,000 cells per well in complete media in either the presence or absence of 10 μg/ml of anti CD123 antibodies (HT12 and J13) or control antibodies (NIP228, 9F5). A growth factor, either IL-3 (1 ng/ml) or GM-CSF (2 ng/ml), was added to the cells to initiate proliferation. […] Cell viability was measured by CellTiter-Glo® (CTG) Luminescent cell Viability Assay. […] Then the absorbance was measured by Envision luminescence reader. The relative cell number in each well was calculated by dividing the value of each sample treated with an antibody by the average values of wells with the untreated cells (control). […]
To measure the concentration of antibody needed for IL3 inhibition, TF-1 cells were seeded at 8,000 cells per well and antibodies were added at a 10 point dilution starting at 10 μg/ml. […] The relative cell number in each well was determined by Cell Titre Glo as described above.
On the technique in general: In ATP-based viability assays light output follows the ATP content of the culture.

For the next experiment, the target named is T1, hIL3-Rα (Homo sapiens, UniProt P26951).
T1 sequence (P26951 19-378): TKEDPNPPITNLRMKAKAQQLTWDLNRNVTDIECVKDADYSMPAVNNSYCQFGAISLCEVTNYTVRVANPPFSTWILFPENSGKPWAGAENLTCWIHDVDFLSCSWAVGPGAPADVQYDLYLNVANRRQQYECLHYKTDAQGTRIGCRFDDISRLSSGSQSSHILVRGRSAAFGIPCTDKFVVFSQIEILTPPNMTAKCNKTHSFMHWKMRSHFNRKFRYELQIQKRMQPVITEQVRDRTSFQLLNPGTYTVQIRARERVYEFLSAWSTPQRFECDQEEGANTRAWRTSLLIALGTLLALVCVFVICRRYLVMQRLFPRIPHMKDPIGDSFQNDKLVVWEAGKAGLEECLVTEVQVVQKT
Put plainly: Biolayer interferometry binding (Octet RED384). To be noted: in words. Here is the method:
(§1) The affinity of CD123 antibodies described herein was determined using Biolayer interferometry.
(§2) Biolayer interferometry binding experiments were performed using an Octet RED384 instrument, with all measurements made at 30° C. AHC biosensor probes were soaked in kinetics buffer (PBS pH 7.2+0.02% Tween-20, 0.1% BSA, 0.05% sodium azide) for 10 minutes, followed by baseline signal measurement in kinetics buffer for 60 seconds. Antibody HT12-GL was loaded from a 2 μg/mL solution onto AHC biosensors for 120 sec. For binding to hIL3-Rα, the antibody-loaded biosensor tips were dipped in binding buffer for 60 sec (baseline), followed by immersion in a solution containing dilutions of hIL3-Rα (10-0.16 μg/mL) for 300 sec (association), and subsequent immersion in kinetics buffer for 400 sec (dissociation). For binding to hIL5-Rα and GM-CSFRa, all steps were the same except the concentration of antigen was increased (50-1.56 μg/mL) and the dissociation step was decreased to 300 sec. The signal from a buffer only reference sample was subtracted, and all curves were fit with a 1:1 binding model to determine KD values. […] HT12-GL also bound cynomolgus IL3Rα (FIG. 3G).
(In general: BLI is a label-free optical method that tracks binding on a fibre tip over time.)

The subject of another experiment is cynomolgus IL3Rα. Briefly: Biolayer interferometry binding (Octet RED384). As to the method:
as §1, §2

B1: J13: anti-CD123 antibody, VH SEQ ID NO: 15, VL SEQ ID NO: 16 (antibody, V domains shown)
VH: EVQLVESGGGLVQPGGSLRLSCVVSGFTFSSYAMSWVRQAPGKGLEWVSAISGSGDSTYYADSVKGRFTFSRDNSKNTLYLQMNSLRAEDTAVYYCTKDRGFYYGMDVWGQGTMVTVSS
VL: [here about 100 residues without letters]FGQGTRLEIK
modifications: J13 VH; J13 VL
With B1, in experiment [1], the “inhibition of GM-CSF mediated proliferation of TF-1” value is on record as “not”. Besides, the “inhibition of IL-3 dependent proliferation of TF-1” value in experiment [2] is on record as “to a lesser extent”. For the same molecule, the “binding to human IL3Rα” value with hIL3-Rα is recorded as “showed affinity”. In addition, in the experiment on cynomolgus IL3Rα, the “binding to cynomolgus IL3Rα” value is “showed affinity”.
